Measurements taken from PubChem BioAssay (NCI).
Several values for one entry are separate records, joined by “and”; a condition that tells them apart may be missing. Identical values can stand only once.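 A five-concentration, 48-hour dose response in 96-well plates underlies each endpoint, interpolated linearly between surrounding concentrations. GI50: concentration for 50% inhibition of growth. TGI is the concentration that stops growth completely.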

test system: NCI-H322M lung; experiment: DTP human tumour cell line panel, 48 h

SMILES | GI50 [µM] | TGI
CCC1(O)C(=O)OCc2c1cc1n(c2=O)Cc2cc3ccc(C=O)cc3nc2-1 (centres undefined) | 5.53 | 31.6 µM and 28.7 µM
COc1ccc(NC(=S)Nc2cc(C)ccn2)cc1 | – | > 100 µM
N.N.N.N.N.O=C([O-])c1nn[n-]n1.[Cl-].[Co+3] | > 100 | > 100 µM
CCOC(=O)CC[C@H](N)C(=O)N[C@@H](Cc1ccc(N(CCCl)CCCl)cc1)C(=O)OCC | – | 20.2 µM
[O-][n+]1nc(N2CCOCC2)nc2ccccc21 | – | > 100 µM
Cc1ccc(S(=O)(=O)NC(=O)NCc2ccc(S(N)(=O)=O)cc2)cc1 | – | > 100 µM
CC(=O)OC[C@]12CC[C@H]3[C@@H](C[C@H]4O[C@]45[C@@H](O)C=CC(=O)[C@]35C)[C@@H]1CC[C@@H]2[C@H](C)[C@H]1CC(C)=C(C)C(=O)O1 | 1.09 | 2.43 µM
C1=C(CC2=C[P+](c3ccccc3)(c3ccccc3)C=C(c3ccccc3)O2)OC(c2ccccc2)=C[P+]1(c1ccccc1)c1ccccc1 | – | 1.88 µM
COc1cc(OC(=O)c2c(O)cc(O)c(O)c2C)cc(C)c1C(=O)Oc1cc(C)c(C(=O)O)c(O)c1 | – | > 100 µM
COC(=O)c1ccccc1/C=C1\Cc2c(ccc3c2CCC3)C1=O | – | > 100 µM
COc1ccccc1C[C@@H]1OC2(C=CC(=O)CC2SC(=O)c2ccccc2)O[C@H]1Cc1ccccc1OC (some centres undefined) | – | 18.2 µM
C=CCN1C(=O)/C(=C/c2ccc(Cl)cc2)N=C1SC/C=C/C | – | > 100 µM
COc1c2c(cc3nc4ccccc4nc13)CCC(C(C)(C)O)C2 (centres undefined) | – | > 100 µM
NC1C/C(=N\O)c2c(Cl)sc(Cl)c21 (centres undefined) | – | > 100 µM
CC1(n2nc(-c3ccccc3)n(-c3ccccc3)c2=O)CSC1 | – | > 100 µM
NCC(Cl)C(O)c1cnc(N)[nH]1 (centres undefined) | – | > 25 µM
C1C2CC3CC1CC(c1nn4c(C56CC7CC(CC(C7)C5)C6)nnc4s1)(C2)C3 | – | > 100 µM
O=c1[nH]c(=O)n(C/C=C/CO)nc1Br | – | > 100 µM
CCc1[nH]c(=O)nc(N)c1-c1ccc(N2CCCCC2)c([N+](=O)[O-])c1 | – | > 100 µM
CCC(C)C(=O)OC1C(=O)OC2CC3C(C)=CC(=O)C(O)C3(C)C3C4(O)OCC23C1C(C)C4O (centres undefined) | – | 3.22 µM
Cc1sc2nc(N(C)C)oc(=O)c2c1C | – | > 100 µM
COC(=O)c1cc(Br)c(Br)n1C | – | > 100 µM
CCOC(=O)Sc1ncnc2nc[nH]c12 | 4.86 | > 100 µM

SMILES | GI50 [µM] | TGI
CCC#CC[C@H]1C/C=C2/C(=O)C=C[C@@H]2C/C=C\CCCC(=O)O1 | 1.59 | 7.47 µM
CCSc1nnc(Sc2c3ccccc3nc3ccccc23)s1 | – | 43.8 µM
Cc1nc2ccccc2c(=O)n1NC(=O)c1ccccn1 | – | > 100 µM
CCCCCCCCCCCCCCCCP(=O)(O)OCC(N)C(=O)O (centres undefined) | – | 41.2 µM
CN1CCC23c4c5ccc(Oc6nnnn6-c6ccccc6)c4OC2c2[nH]c4ccccc4c2CC3(O)C1C5 (centres undefined) | – | 19.2 µM
CC(C)CCCC(C)[C@H]1CC[C@H]2n3c(nnc3-c3ccccc3)CCC[C@]12C (some centres undefined) | – | 41.4 µM
CC(=O)NC1C(OCc2ccccc2)OC(CO)C(O)C1OC(C)C(=O)NC(C(=O)NC(CCC(=O)NCCCC(=O)Nc1ccc2c(c1)CN1C(=O)c3ccccc3C1=N2)C(N)=O)C(C)C (centres undefined) | – | > 100 µM
CC1=NN(c2ccccc2)C2(C1)C(Cl)C(=O)N2c1nc2ccccc2s1 (centres undefined) | – | > 100 µM
CCCCCCCC(CC(=O)NC(CO)C(=O)NC(CO)CC(C)C)OC(=O)CC(CCCCCCC)OC(=O)CC(CCCCCCC)OC1OC(C)C(O)C(OC2OC(C)C(O)C(OC(C)=O)C2O)C1O (centres undefined) | – | 26.5 µM
N#Cc1nc(C2OC(COC(=O)c3ccccc3)C(OC(=O)c3ccccc3)C2OC(=O)c2ccccc2)oc1N (centres undefined) | – | > 100 µM
CC(=O)OCC(OC(C)=O)C1C[C@H]2O[C@@H]3[C@H](C[C@H]2O1)O[C@@]1(C[C@@H]3C)C[C@H](C)[C@@H]2O[C@]3(C[C@@H]2O1)C[C@H]1O[C@H]2[C@H](C)[C@H]4OC(=O)C[C@H]5CC[C@@H]6OC7[C@H]8O[C@]9(CC[C@H]%10CC(=O)[C@H](CC[C@H]%11C[C@@H](C)C(=O)C(C[C@@H]4O[C@H]2C[C@H]1O3)O%11)O%10)CC8O[C@@H]7[C@@H](O9)[C@H]6O5 (some centres undefined) | – | 0.0102 µM
COC(=O)C1=CC2C(=O)c3ccccc3C1(c1ccccc1)N2C1CCCCC1 (centres undefined) | – | > 100 µM
C[C@]12CCC(O)CC1=CC[C@@H]1[C@@H]2CC[C@]2(C)C(O)[C@H](n3ccnc3)C[C@@H]12 (some centres undefined) | – | > 100 µM
COc1ccc(C(=O)COc2cccc(/C=C3\COc4ccc5ccccc5c4C3=O)c2)cc1 | 15.6 | > 100 µM
Nc1ccc(/C=C/c2ccnc3ccccc23)cc1 | – | > 100 µM
COC(=O)C1=NC(=S)NC(c2ccccc2)C1c1nc2ccccc2s1 (centres undefined) | – | > 100 µM
O=C(N/N=C/c1cccc(O)c1O)c1ccccc1 | 2.19 | > 100 µM
Cc1cc(SCC(=O)c2ccccc2)nc2ccccc12 | – | > 100 µM
CCN(CC)C(=O)c1cc(OC(C)C)ccc1-c1c(C)cc(OC(C)C)c(OC)c1OC | – | > 100 µM
Nc1ncc(-c2cnn(CCO)c2)c2scc(-c3ccc(NC(=O)Nc4cccc(F)c4)cc3)c12 | 0.363 | 3.12 µM
CCOC(=O)/C(C#N)=C/Nc1c(C)n(C)n(-c2ccccc2)c1=O | – | > 100 µM
CCN(CC)CCN1CC(O)=C(c2nc(-c3ccc(Cl)cc3)cs2)C1=N | 1.91 | 4.35 µM
